{"source": "the BET-seq Pho4 binding data (Le et al. 2018)", "note": "Some of the results follow. The energies were worked out here from pooled read counts, against the library average; single values are noisy."}
{"biological_target": "T1, Pho4 (S. cerevisiae) (UniProt P07270)", "T1 sequence": "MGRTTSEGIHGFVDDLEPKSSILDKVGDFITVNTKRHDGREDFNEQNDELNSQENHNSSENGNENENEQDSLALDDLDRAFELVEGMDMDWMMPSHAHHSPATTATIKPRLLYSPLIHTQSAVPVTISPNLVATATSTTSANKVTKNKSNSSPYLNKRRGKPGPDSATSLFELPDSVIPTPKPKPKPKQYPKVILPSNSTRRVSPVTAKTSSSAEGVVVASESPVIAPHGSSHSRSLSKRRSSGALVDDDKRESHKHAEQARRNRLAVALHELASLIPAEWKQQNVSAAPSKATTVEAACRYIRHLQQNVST", "experiment": "relative binding free energy (BET-seq); higher = weaker binding", "conditions": "reference: library average", "units": {"relative binding free energy": "kcal/mol"}}
{"sequence": "GACTGCACGTGTGGGT", "relative binding free energy": 0.15}
{"sequence": "ATTAGCACGTGTCATG", "relative binding free energy": 0.01}
{"sequence": "AGGCTCACGTGGGTGT", "relative binding free energy": 0.19}
{"sequence": "ATGGACACGTGATGGC", "relative binding free energy": 0.15}
{"sequence": "GATGGCACGTGGAAAT", "relative binding free energy": 0.29}
{"sequence": "TTAGTCACGTGTGTTG", "relative binding free energy": 0.16}
{"sequence": "TTGGACACGTGTAGCT", "relative binding free energy": 0}
{"sequence": "GGTCACACGTGGAGGG", "relative binding free energy": -0.1}
{"sequence": "TGCTTCACGTGTGGTG", "relative binding free energy": 0.23}
{"sequence": "GTATCCACGTGTGTTT", "relative binding free energy": 0.06}
{"sequence": "GTGAACACGTGTGAGA", "relative binding free energy": 0.16}
{"sequence": "TTGCACACGTGTTGGT", "relative binding free energy": 0.08}
{"sequence": "TGTTTCACGTGGATTT", "relative binding free energy": 0.25}
{"sequence": "ATGTACACGTGAGATG", "relative binding free energy": 0.33}
{"sequence": "GGTTCCACGTGGACGT", "relative binding free energy": 0.24}
{"sequence": "ATCGGCACGTGGAGTA", "relative binding free energy": -0.08}
{"sequence": "GTGCTCACGTGATGGC", "relative binding free energy": 0.47}
{"sequence": "TAGGGCACGTGTGACG", "relative binding free energy": -0.06}
{"sequence": "ATTTACACGTGAAATT", "relative binding free energy": 0.59}
{"sequence": "ATATTCACGTGTGGCT", "relative binding free energy": 0.15}
{"sequence": "TTTCGCACGTGTGGGC", "relative binding free energy": 0.05}
{"sequence": "GGGTGCACGTGAGGTC", "relative binding free energy": 0.36}
{"sequence": "GGTGGCACGTGTTAGT", "relative binding free energy": -0.03}
{"sequence": "GTTATCACGTGATTGA", "relative binding free energy": 0.3}
{"sequence": "TTTGTCACGTGGCAAG", "relative binding free energy": -0.05}
{"sequence": "TCTAGCACGTGGTGAT", "relative binding free energy": -0.16}
{"sequence": "TTTTGCACGTGTTAAG", "relative binding free energy": 0.09}
{"sequence": "GGCTTCACGTGAAGGT", "relative binding free energy": 0.44}
{"sequence": "GATGGCACGTGAGATT", "relative binding free energy": 0.18}
{"sequence": "TGATACACGTGGTGTT", "relative binding free energy": -0.13}
{"sequence": "AAGTGCACGTGTTCTG", "relative binding free energy": -0.21}
{"sequence": "TGGGTCACGTGTAGGC", "relative binding free energy": 0.13}
{"sequence": "GTTTCCACGTGGGGGT", "relative binding free energy": -0.16}
{"sequence": "GTATACACGTGTTAAG", "relative binding free energy": 0.07}
{"sequence": "GTATGCACGTGAGTCG", "relative binding free energy": 0.1}
{"sequence": "ATTTTCACGTGGCCGG", "relative binding free energy": 0.32}
{"sequence": "GTTGTCACGTGAAGTT", "relative binding free energy": 0.33}
{"sequence": "AAGAACACGTGAGTTG", "relative binding free energy": 0.29}
{"sequence": "TTTATCACGTGTGAGG", "relative binding free energy": 0.21}
{"sequence": "AGGCGCACGTGTAGTA", "relative binding free energy": 0.04}
{"sequence": "GGAAGCACGTGGTGCT", "relative binding free energy": -0.12}
{"sequence": "TAGGGCACGTGGGTGT", "relative binding free energy": -0.31}
{"sequence": "GGGTCCACGTGGGAAG", "relative binding free energy": -0.03}
{"sequence": "GGATGCACGTGTAGGT", "relative binding free energy": 0.06}
{"sequence": "TTTAGCACGTGAGGGA", "relative binding free energy": 0.21}
{"sequence": "TGCTTCACGTGTGCTG", "relative binding free energy": 0.16}
{"sequence": "TTAAGCACGTGTGACG", "relative binding free energy": -0.05}
{"sequence": "TGGGTCACGTGCTCTT", "relative binding free energy": 0.06}
{"sequence": "GGTTACACGTGTAGAA", "relative binding free energy": 0.26}
{"sequence": "GGGTGCACGTGATTCA", "relative binding free energy": 0.11}
{"sequence": "GTTATCACGTGATGTA", "relative binding free energy": 0.31}
{"sequence": "GGCGGCACGTGGCATT", "relative binding free energy": -0.09}
{"sequence": "GGATTCACGTGTGTAT", "relative binding free energy": 0.36}
{"sequence": "TCCTGCACGTGTGGTT", "relative binding free energy": 0}
{"sequence": "TTCGACACGTGTGGTG", "relative binding free energy": 0.08}
{"sequence": "GGATACACGTGTGGCA", "relative binding free energy": 0.16}
{"sequence": "GTGTGCACGTGCGGAA", "relative binding free energy": -0.1}
{"sequence": "GGTAGCACGTGGGTTC", "relative binding free energy": -0.17}
{"sequence": "GGAATCACGTGGGCTA", "relative binding free energy": 0.12}
{"sequence": "TTTGTCACGTGTAATC", "relative binding free energy": 0.28}
{"sequence": "TAGTACACGTGAAGGA", "relative binding free energy": 0.39}
{"sequence": "GGTATCACGTGGGTAC", "relative binding free energy": -0.02}
{"sequence": "CGGGGCACGTGCTTAG", "relative binding free energy": -0.15}
{"sequence": "CAGTACACGTGATTGT", "relative binding free energy": 0.23}
{"sequence": "TAGGGCACGTGTGCAA", "relative binding free energy": -0.17}
{"sequence": "GAGTACACGTGGCGTT", "relative binding free energy": -0.02}
{"sequence": "CTTTTCACGTGGATAA", "relative binding free energy": 0.24}
{"sequence": "TTTGTCACGTGGCCGT", "relative binding free energy": -0.03}
{"sequence": "GATGTCACGTGGCTGG", "relative binding free energy": 0.01}
{"sequence": "CAAAGCACGTGGGTTT", "relative binding free energy": -0.11}
{"sequence": "CGGTGCACGTGTCGTA", "relative binding free energy": 0.03}
{"sequence": "ATTTTCACGTGCGATG", "relative binding free energy": 0.17}
{"sequence": "TGATTCACGTGTCTAT", "relative binding free energy": 0.25}
{"sequence": "TGATACACGTGTTTGA", "relative binding free energy": 0.02}
{"sequence": "TGTATCACGTGCAAGT", "relative binding free energy": 0.08}
{"sequence": "TGGCGCACGTGTGAGC", "relative binding free energy": 0.09}
{"sequence": "TTAAGCACGTGGTATT", "relative binding free energy": -0.11}
{"sequence": "GATGCCACGTGGGTTT", "relative binding free energy": 0.06}
{"sequence": "TTTCTCACGTGATGGC", "relative binding free energy": 0.29}
{"sequence": "GGGGGCACGTGTGCTT", "relative binding free energy": -0.09}
{"sequence": "ATAGTCACGTGAGCTG", "relative binding free energy": 0.47}
{"sequence": "TTTTTCACGTGTACTG", "relative binding free energy": 0.37}
{"sequence": "GAGTTCACGTGACTTG", "relative binding free energy": 0.35}
{"sequence": "AGGTGCACGTGAGGGT", "relative binding free energy": 0.18}
{"sequence": "TTTTTCACGTGGGTGG", "relative binding free energy": 0.28}
{"sequence": "GGGGGCACGTGCCCGG", "relative binding free energy": -0.24}
{"sequence": "GGCGTCACGTGTAAAG", "relative binding free energy": 0.2}
{"sequence": "GGCTCCACGTGTTGGG", "relative binding free energy": 0.22}
{"sequence": "TGAGTCACGTGTTTCG", "relative binding free energy": 0.05}
{"sequence": "TTTCGCACGTGGAGTT", "relative binding free energy": 0.08}
{"sequence": "GGGAGCACGTGGCGGA", "relative binding free energy": -0.13}
{"sequence": "GGCGCCACGTGGAGGT", "relative binding free energy": -0.12}
{"sequence": "ATGATCACGTGGATTG", "relative binding free energy": 0.06}
{"sequence": "ACTGTCACGTGAGGTT", "relative binding free energy": 0.27}
{"sequence": "TTCTCCACGTGTTTAG", "relative binding free energy": 0.17}
{"sequence": "GGTCTCACGTGAGTGA", "relative binding free energy": 0.2}
{"sequence": "AAGTACACGTGAGGTT", "relative binding free energy": 0.35}
{"sequence": "TTGGGCACGTGGGTCG", "relative binding free energy": -0.11}
{"sequence": "GCTGTCACGTGGTATG", "relative binding free energy": -0.03}
{"sequence": "AATTTCACGTGCGGGC", "relative binding free energy": 0.21}
{"sequence": "GTGCACACGTGTGGGA", "relative binding free energy": 0.12}
{"sequence": "TGTGTCACGTGCAGAA", "relative binding free energy": 0}
{"sequence": "TTAGCCACGTGTTAGG", "relative binding free energy": -0.1}
{"sequence": "GTAGTCACGTGCGGGG", "relative binding free energy": 0.11}
{"sequence": "CGGTACACGTGTGCGG", "relative binding free energy": -0.09}
{"sequence": "GCTAGCACGTGTAGTT", "relative binding free energy": 0.17}
{"sequence": "TGTTGCACGTGTGCGC", "relative binding free energy": -0.01}
{"sequence": "TAAGTCACGTGTGGAA", "relative binding free energy": 0.18}
{"sequence": "TGTTACACGTGCAGGT", "relative binding free energy": 0.04}
{"sequence": "CTGGTCACGTGTCTTG", "relative binding free energy": 0.21}
{"sequence": "TGCCGCACGTGTGTTG", "relative binding free energy": -0.07}
{"sequence": "TGTCTCACGTGGCTGG", "relative binding free energy": 0.18}
{"sequence": "TTTTTCACGTGCACGC", "relative binding free energy": 0.46}
{"sequence": "TCAATCACGTGGATGG", "relative binding free energy": 0.14}
{"sequence": "GTTGTCACGTGAGGTT", "relative binding free energy": 0.35}
